In article PMC10668032:
This is one part of the list. At the low end of the ranking the order means little.

These sequences were tested against SIX1 homeodomain (reference allele) (UniProt Q15475) (assay: universal protein binding microarray). Conditions: Universal all-10-mer PBM (8x60K, AMADID 030236), 300 nM GST-tagged protein, Alexa Fluor 488 anti-GST; buffer, salt, pH and temperature not stated; high values mean tight binding; most listed sequences are background and not binding sites; double strand, one strand shown.

Row | Sequence | binding signal [E-score]
1 | GATTAGAC | 0.0257
2 | AGGGAACT | -0.192
3 | AGACAGAG | -0.0358
4 | GCGACACA | -0.0204
5 | CGAGCCAC | -0.0513
6 | CCGGATAG | 0.361
7 | AGTCGTCC | -0.107
8 | CGTCCGCC | -0.105
9 | GCCGAAAA | -0.236
10 | AGAACTCG | -0.248
11 | AGACCAAC | -0.0455
12 | CCGCCGAG | 0.152
13 | CGGAGGTA | 0.0474
14 | AGTAGGTG | 0.0419
15 | GCTGCGCC | -0.249
16 | AAATCTCG | -0.215
17 | TCATCGAA | -0.0315
18 | GACTATCA | 0.25
19 | AGCAACTC | -0.172
20 | CTGCTAGA | -0.038
21 | GATATCGC | 0.468
22 | GTCTACAA | -0.185
23 | CAACGCGC | -0.0748
24 | AACATCCA | -0.017
25 | CTAACTGA | 0.0348

Row | Sequence | binding signal [E-score]
26 | ACAGTAGA | 0.107
27 | GAGTCCCC | -0.0527
28 | CTGCGGTC | -0.179
29 | AAAGCCCG | -0.218
30 | ACACAGAA | -0.149
31 | AACCGCAT | 0.0383
32 | GAGCCGGC | -0.0993
33 | GGTGGTGA | -0.0498
34 | CGATGGAG | 0.167
35 | TAGTAAGA | -0.0267
36 | GATTTGCA | -0.222
37 | CAGTGCGA | -0.0319
38 | AGGTAATC | 0.0207
39 | GTATGTGA | -0.0503
40 | ATTGGATG | 0.0435
41 | AGGTACTA | -0.00237
42 | AATTATAG | -0.0672
43 | GGCGTCCA | -0.215
44 | ATAGACGC | 0.0699
45 | AAACAGGT | -0.146
46 | ACCTCCGC | 0.0827
47 | ACAGTACA | -0.0586
48 | ACACCCCG | 0.353
49 | AGCGCTTG | -0.0929
50 | CGAATCTA | -0.128

Row | Sequence | binding signal [E-score]
51 | ACCTAGCC | -0.115
52 | TACGTCTA | 0.106
53 | CCATGGCC | -0.281
54 | ACCTCAAA | -0.119
55 | CCGCCCTC | 0.011
56 | CTGTTTCA | -0.194
57 | ATTAAGGA | 0.0208
58 | AGTTGAGC | -0.0713
59 | AGGCTTCC | -0.0657
60 | TCTTCCCA | -0.201
61 | ATGCGAAG | -0.115
62 | AGCGAAAA | -0.206
63 | CCAGCTAA | -0.182
64 | AATCCTAA | -0.0273
65 | AAGCAGTC | -0.185
66 | GTCACGCA | -0.00944
67 | AAGGCCCG | -0.257
68 | CTGTTATA | 0.00781
69 | AGTACTAG | -0.182
70 | ATCTGATG | 0.156
71 | TGTATTAA | 0.275
72 | AGGTTTTC | -0.162
73 | ATGTGTAG | -0.0862
74 | AAGTATAA | 0.184
75 | ATGGGTGC | -0.088

Row | Sequence | binding signal [E-score]
76 | ATTGGTCA | -0.0808
77 | CGCCAATA | 0.0986
78 | CCCCTAAC | -0.0738
79 | AACTCTCC | -0.081
80 | AAGGTACC | -0.225
81 | AAAAAACA | -0.295
82 | AGTTTCAA | -0.116
83 | GAAACGCC | -0.15
84 | ATATTTAA | 0.0464
85 | CACCATTA | 0.102
86 | CCATAGGC | -0.189
87 | GTATGAAA | 0.0498
88 | CCGGACAA | -0.0267
89 | AACCTATG | -0.0979
90 | AAAGATGT | -0.255
91 | GACCTCCC | -0.283
92 | GCTAACAC | -0.0438
93 | GAGCACAA | -0.149
94 | AGATGGGG | 0.0485
95 | AAGTCTGA | -0.0159
96 | AATTAACG | -0.144
97 | CAGCGGTC | -0.181
98 | CTGCACTC | -0.0714
99 | CACGGCAA | -0.0875
100 | CATCGACA | 0.107

Row | Sequence | binding signal [E-score]
101 | AGGGTGAG | -0.114
102 | CTACGGAA | -0.2
103 | TAATTTCA | -0.248
104 | CAAGGTCC | -0.163
105 | CCTTGGCA | -0.123
106 | GCAAGTGA | 0.113
107 | AAGTTCGC | -0.364
108 | AGCGATTC | 0.0123
109 | AATAGGCG | -0.0385
110 | CTAGACAC | 0.158
111 | CTAAACTA | -0.176
112 | ACTGAGGG | -0.108
113 | CTGTTCCC | -0.163
114 | ATGAGCGA | -0.0318
115 | TGGGGTAA | 0.203
116 | CATGCGCC | -0.00213
117 | AGTACCGG | 0.125
118 | GATCTCAC | 0.317
119 | AAAATCGG | -0.166
120 | CTATGTGA | 0.0843
121 | ATCATCTC | 0.371
122 | CGCGTAAG | -0.0928
123 | GCTCCTTA | 0.00598
124 | CATTGTCC | -0.179
125 | CAGCCAGC | -0.198

Row | Sequence | binding signal [E-score]
126 | CCCTCGAG | 0.0391
127 | CGTAGGCC | -0.00105
128 | CTCGAATA | -0.0369
129 | GGGGTGTA | 0.387
130 | CAAGTGGC | -0.173
131 | AGGGGCAA | -0.0867
132 | GAGAGGCC | -0.346
133 | CGGAGGAC | -0.0321
134 | ATGGTGAA | 0.0874
135 | ATTCCCAA | -0.194
136 | CGAATTCC | 0.0515
137 | GTCTGCTA | -0.0173
138 | CAGCGCAA | -0.0757
139 | CGTGGGAG | 0.0444
140 | GTGCAAAC | -0.177
141 | CAAGACAC | 0.0599
142 | AGGTGTTC | 0.14
143 | CCGCCGTA | -0.0142
144 | CATGAGTA | 0.0448
145 | CGTTATCC | 0.126
146 | CCTATACG | 0.153
147 | TATGCCGA | 0.141
148 | GGACATCC | -0.0405
149 | AAAGAGAA | -0.12
150 | ACCACCTC | -0.0851

Row | Sequence | binding signal [E-score]
151 | AACAGTGT | -0.18
152 | AGATAAGC | -0.152
153 | GCCTCAAA | -0.152
154 | CTATGATA | 0.394
155 | GTATTATA | 0.377
156 | ACAATCGC | 0.101
157 | AGCGCACG | -0.2
158 | AAAGGACC | -0.4
159 | CAAAGCCC | -0.218
160 | ATTTTGCG | -0.114
161 | AGGGTTTG | -0.16
162 | ACCTTAAG | -0.138
163 | CCGTTCCA | -0.135
164 | ACGCTCCT | -0.0782
165 | ACATCAGA | -0.0486
166 | CTGATCAA | 0.0834
167 | CTAGGTCA | -0.277
168 | TACGACCA | 0.0621
169 | AGTTTACA | -0.162
170 | CCTAGTTC | -0.127
171 | AGGTTCCG | -0.161
172 | ACTCAGAC | -0.0537
